According to publication PMC4336329 (PLoS ONE, 2015):
Out of some 310,000 compounds screened, about 2,200 (0.71%) showed an effect of 50% or more. The effect is printed as a negative number. The list shows a part of the results.

Each molecule was assayed against human ether-à-go-go-related gene (hERG) potassium channel (human, UniProt Q12809) (assay: primary screen, population patch clamp on CHO cells stably expressing hERG).
Chain of human ether-à-go-go-related gene (hERG) potassium channel (Q12809 whole entry, looked up): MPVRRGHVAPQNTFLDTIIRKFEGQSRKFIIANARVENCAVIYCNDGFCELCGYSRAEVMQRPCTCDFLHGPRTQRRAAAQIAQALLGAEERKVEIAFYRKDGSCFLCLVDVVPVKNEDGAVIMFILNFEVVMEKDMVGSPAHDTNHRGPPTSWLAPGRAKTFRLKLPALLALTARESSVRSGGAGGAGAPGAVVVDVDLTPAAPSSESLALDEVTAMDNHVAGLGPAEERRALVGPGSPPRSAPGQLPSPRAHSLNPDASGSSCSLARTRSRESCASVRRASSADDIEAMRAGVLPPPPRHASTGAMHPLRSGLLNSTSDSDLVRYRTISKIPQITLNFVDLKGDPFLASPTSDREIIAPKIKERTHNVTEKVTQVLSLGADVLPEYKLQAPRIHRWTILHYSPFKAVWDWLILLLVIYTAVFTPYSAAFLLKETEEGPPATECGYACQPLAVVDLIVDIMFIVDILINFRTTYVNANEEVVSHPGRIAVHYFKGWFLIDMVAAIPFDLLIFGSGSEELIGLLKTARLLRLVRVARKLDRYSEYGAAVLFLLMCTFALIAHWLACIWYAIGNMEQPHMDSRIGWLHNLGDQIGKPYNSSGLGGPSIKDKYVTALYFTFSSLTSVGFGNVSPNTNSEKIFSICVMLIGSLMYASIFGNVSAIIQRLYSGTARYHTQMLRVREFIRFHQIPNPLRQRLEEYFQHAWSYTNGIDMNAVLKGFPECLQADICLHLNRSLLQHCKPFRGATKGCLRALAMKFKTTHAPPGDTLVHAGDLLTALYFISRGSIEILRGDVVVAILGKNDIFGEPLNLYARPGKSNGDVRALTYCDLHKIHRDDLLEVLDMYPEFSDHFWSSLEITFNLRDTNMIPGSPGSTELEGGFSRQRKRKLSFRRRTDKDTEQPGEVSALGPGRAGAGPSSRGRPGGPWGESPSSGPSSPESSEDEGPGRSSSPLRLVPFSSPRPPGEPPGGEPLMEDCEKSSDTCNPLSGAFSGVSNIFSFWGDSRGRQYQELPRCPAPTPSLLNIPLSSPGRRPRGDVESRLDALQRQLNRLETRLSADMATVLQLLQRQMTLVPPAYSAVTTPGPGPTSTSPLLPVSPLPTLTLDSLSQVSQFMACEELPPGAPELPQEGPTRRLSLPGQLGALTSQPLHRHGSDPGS

SMILES | hERG current change (%, negative = inhibition) at 1uM
Cc1ccc(CSC2=Nc3sccc3C3=NC(=O)CN23)cc1 | -4.69%
Cc1ccc(C(=O)N2CCN(c3ccc(N4CCOCC4)nn3)CC2)cc1 | 11.6%
C/C(=N\Nc1nc2c(s1)CCCC2)c1ccccc1.Cl | -2.17%
O=C(COc1ccc(Cl)cc1)NCCNC(=O)c1ccccn1 | 6.89%
OCC[C@H]1C[C@H](O)[C@@H](O)[C@]2(CCCc3ccccc3O2)O1 | 5.51%
Cl.OC(COc1ccc(Cl)cc1)CN1C2=NCCCN2c2ccccc21 (stereo not shown) | -82%
Cc1n(Cc2ccccc2)c2ccccc2[n+]1Cc1ccccc1.[Cl-] | 12.1%
O=C(c1cccc(Cl)c1)N1CCC(=O)N(C(CO)Cc2ccccc2)CC1 (stereo not shown) | 12.8%
Cc1c(NC(=O)c2ccccc2NS(=O)(=O)c2ccc(F)cc2)c(=O)n(-c2ccccc2)n1C | 7.93%
Cc1cc2nnc(SCC(=O)N3C(C)CCCC3C)n2c(N)n1 (stereo not shown) | 10.6%
COc1ccc(C(c2nnnn2Cc2ccccc2)N2CCN(C(=O)c3ccco3)CC2)cc1 (stereo not shown) | -0.6%
CC(C)(C)c1ccc(OCCOCCn2cnc3ccccc3c2=O)cc1 | 3.03%
CCOC(=O)c1ccccc1NC(=O)CSc1nnnn1C | -6.87%
Cc1ccc(CN2CCN(Cc3cn[nH]c3C3CCCCC3)CC2CCO)cc1 (stereo not shown) | -12.3%
Cc1[nH]n2c(=O)cc(Cc3ccccc3)nc2c1C#N | -6.39%
COc1ccc(Cl)cc1C(=O)NNC(=O)CSc1nnnn1C | 14%
OCCc1c[nH]c2ccc(C(F)(F)F)cc12 | 13.5%
CC(=O)N1CCc2cc(Br)cc(S(=O)(=O)NCc3ccccn3)c21 | 14.2%
CCN1CCN(Cc2ccc(NC(=O)c3ccc(C)c(NC(=O)N4CCNC4=O)c3)cc2C(F)(F)F)CC1 | 13.4%
C/C(=N\NC(=O)Cn1nc(C)cc1C)c1ccc([N+](=O)[O-])cc1 | -3.11%

SMILES | hERG current change (%, negative = inhibition) at 1uM
CC(NC(=O)COc1ccc(S(=O)(=O)N2CCOCC2)cc1)c1ccccc1 (stereo not shown) | 10.7%
O=S(=O)(c1cc(C(F)(F)F)ccc1Cl)N1CCN(c2ccccn2)CC1 | -4.36%
O=C(CCC1CCCN(C(=O)c2cccs2)C1)N1CCN(c2ccccn2)CC1 (stereo not shown) | 7.51%
CCCCS/C(N)=N/N=C/c1ccccc1O | 13.9%
COC(=O)/C(=C(/F)SCC(C)=O)C(F)(F)F | 11%
CCCNC(=O)COc1ccc(-c2nn(C)c(=O)c3ccccc23)cc1 | 16.3%
COc1ccccc1N(CC1CO1)S(=O)(=O)c1ccccc1 (stereo not shown) | 9.79%
Cc1ccc2nc(SCC(=O)NNC(=O)c3ccccc3)[nH]c2c1 | 1.65%
Cc1ccc(OCCCC(=O)N2CCN(S(=O)(=O)c3cccc(F)c3)CC2)cc1 | -1.38%
Fc1ccccc1CN1CCCN(C(=S)Nc2cccc(Cl)c2)C1 | 3.96%
CC1CCN(C(=O)C(=O)c2cn(CC(=O)N3CCCC3)c3ccccc23)CC1 | 10.6%
CCOCCCNC(=O)C(NC(=O)c1ccc2c(c1)OCO2)c1ccccc1 (stereo not shown) | 7.14%
CCOC(=O)Cc1nnc(NC(=O)CSc2ccc(C)cc2)s1 | 9.78%
CCCS(=O)(=O)N1CCCC(C(=O)NC(C)c2ccc3c(c2)OCCO3)C1 (stereo not shown) | 12.3%
Cc1ccc(-c2nnn(CC(=O)N3CCC(C)CC3)n2)o1 | 17%
CCn1c2ccccc2c2cc(NC(=O)CSc3nnc(C4CC4)n3Cc3ccco3)ccc21 | 12.9%
COc1ccc(C(=O)N/N=C(\C)c2ccc(NC(=O)Cc3ccccc3)cc2)c(OC)c1 | 0.941%
CCCC(C)C(=O)Nc1ccc(C(N)=O)cc1 (stereo not shown) | 9.98%
Cc1ccc(C(=O)N2CCN(c3ncnc4c(C)csc34)CC2)cc1 | 4.78%
COc1ccc(CN2C(=O)C(C)Oc3ccccc32)cc1 (stereo not shown) | 19%

SMILES | hERG current change (%, negative = inhibition) at 1uM
Cc1csc(NC(=O)c2ccc[nH]c2=O)n1 | 12.7%
NC(=O)c1oc2ccc(Cl)cc2c1NC(=O)CN1CCOCC1 | 5.95%
CCc1nccn1S(=O)(=O)c1ccc(OC)c(OC)c1 | 5.83%
O=[N+]([O-])C1=CC=C2C(=NC3(CCCCC3)N2O)C1=NCCO | 11.1%
COc1ccc(S(=O)(=O)N2CCN(CCC(=O)Nc3ccccc3F)CC2)cc1 | 7.26%
CCOc1ccc(CCNC(=O)COC(=O)/C=C/c2ccc(OCC#N)c(OC)c2)cc1OCC | 3.03%
O=C(CSc1nc(-c2ccccc2)c(-c2ccccc2)o1)Nc1nnc(-c2ccccc2)s1 | 19%
CC(C)Sc1cc(N2CCCC2)nc(-c2ccc(F)cc2)n1 | 10.3%
CNC(=O)c1c(NC(=O)C2=COCCO2)sc2c1CCCC2 | 10.9%
O=C(CCS(=O)(=O)c1cccc2nsnc12)NCc1ccccc1 | 5.93%
CC(=O)c1cccc(NC(=O)C(OC(=O)c2ccccc2NS(=O)(=O)c2cccs2)c2ccccc2)c1 (stereo not shown) | 10.1%
CN1CCN(Cc2cc(COCc3ccccc3)c3cccnc3c2O)CC1 | -2.17%
COc1cccc(C=Nc2ccc3c(c2)CCC3)c1O | 11.8%
CCSc1nnc(NC(=O)CN2C(=O)C3CC=CCC3C2=O)s1 (stereo not shown) | 20.6%
NC(=O)c1c(NC(=S)Nc2ccc(F)cc2)sc2c1CCCC2 | 9.62%
Cc1ccccc1C(=O)c1cccn1CC(=O)NCc1ccccc1Cl | 17.6%
COCc1ccc(C(=O)Nc2ccc(C(=O)O)cc2)o1 | 9.35%
N#C/C(=C\c1ccccc1O)C(=O)Nc1ccccn1 | 5.77%
